This test deals with T1, purified recombinant 161P2F10B extracellular domain (Tag5-161P2F10B ECD, amino acids 46-875) (human, UniProt O14638 46-875).
T1 construct: also called full length ECD
In words: SPR (BIAcore), MAb captured on chip, recombinant 161P2F10B injected, 1:1 fit. (In general: In SPR one partner is held on a chip, and binding of the other changes the refractive index at the surface.)

Data on one molecule can be found in patent publication US20090022663A1 (published 2009).
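Further: purified human MAbs immobilised by capture on a CM5 chip surface, about 150 RU of antibody per cycle.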

B1: H16-1.52 (antibody, V domains shown)
VH: [not shown - about 100 residues]DGYSSGWNYFDYWGQGTLVTVSS
VL: DIVMTQSPDSLAVSLGERATINCKSSQSVLYSSNNKNYLAWYQQKPGQPPKLLIYWASTRESGVPDRFSGSGSGTDFTLTISSLQAEDVAVYYCQEYYSTMCSFGQGTKLEIKR
The koff is a measure of how fast the partners let go of each other. The kon is the rate constant with which the complex forms. Regarding B1, the koff came to 1.2e-05 s⁻¹ and the kon was 900000 M⁻¹ s⁻¹.
